Reference: PubChem BioAssay AID1159614 (National Center for Advancing Translational Sciences (NCATS), 2016)
About 65 (0.1%) of roughly 45,000 compounds were called active. The call rests on the fitted dose curve; in most records, active means well fitted activation curve with a large enough effect; inconclusive means small, poorly fitted or top-dose-only effect; inactive means no such curve, though single readings can be large or run the other way. The list shows a part of the results.

Each compound was assayed against Galactocerebrosidase (Homo sapiens) (UniProt P54803) (assay: A Novel Cell-Based Assay to Identify Small Molecules for B -Galactocerebrosidase). Conditions: 145M-Twi-hGALC-G270D cells (Twitcher mouse brain line with human GALC G270D), HMU-beta-Gal fluorescence, 48 h; series mostly up to 57.5 µM; activation: at the top concentration.
How it was run: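 Brain-derived Twitcher mouse 145M-Twi cells stably expressing human GALC-G270D or wild-type GALC, treated live, then residual GALC activity read by fluorescence of HMU-b-Gal substrate (0.1 mM final) in citrate-phosphate buffer pH 5.2 with sodium taurocholate. Signal increase indicates enhancement.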
Further: 0% is about no effect; nearly all actives have a fitted effect of over 65% in size.

Sequence of UniProt P54803 (P54803 whole entry, looked up): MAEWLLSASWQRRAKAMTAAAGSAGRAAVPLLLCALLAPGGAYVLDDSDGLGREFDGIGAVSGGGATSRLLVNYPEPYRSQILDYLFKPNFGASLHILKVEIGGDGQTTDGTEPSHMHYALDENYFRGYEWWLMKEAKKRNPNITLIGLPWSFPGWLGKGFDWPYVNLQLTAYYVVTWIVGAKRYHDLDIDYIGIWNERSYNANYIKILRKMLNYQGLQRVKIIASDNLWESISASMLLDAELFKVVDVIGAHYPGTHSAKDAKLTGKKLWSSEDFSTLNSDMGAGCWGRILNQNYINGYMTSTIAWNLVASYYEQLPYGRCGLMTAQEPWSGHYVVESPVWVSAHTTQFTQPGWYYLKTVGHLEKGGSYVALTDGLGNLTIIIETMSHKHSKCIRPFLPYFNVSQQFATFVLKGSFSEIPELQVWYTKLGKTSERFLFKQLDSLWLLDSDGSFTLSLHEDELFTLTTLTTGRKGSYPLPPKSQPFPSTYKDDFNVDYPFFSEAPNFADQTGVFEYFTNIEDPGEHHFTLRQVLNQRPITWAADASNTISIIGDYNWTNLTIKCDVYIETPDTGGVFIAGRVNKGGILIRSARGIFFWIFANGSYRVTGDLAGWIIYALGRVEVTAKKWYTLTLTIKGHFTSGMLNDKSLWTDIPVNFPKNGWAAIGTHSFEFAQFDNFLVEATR

activation, inactive:
COc1ccc(CNC(=O)CN(c2ccc(OC)cc2)S(=O)(=O)c2c(C)[nH]c(=O)[nH]c2=O)cc1 -10.1%, O=C(CC1(O)C(=O)N(Cc2ccccc2)c2ccc(Br)cc21)c1ccccc1 (stereo not given) -6.27%, O=C(Cc1ccccc1F)N1CCC(c2nc3c(nnn3Cc3cccc(Cl)c3)c(=O)[nH]2)CC1 -0.837%, Cc1cc(C)cc(OCCn2c(CCNC(=O)C3CCCCC3)nc3ccccc32)c1 -18.6%, Cc1ccc(-n2c(-c3ccco3)nc3c(cnn3-c3ccc(C)cc3)c2=O)cc1 0.59%, O=C(NCCCCc1ccccc1)c1nn(-c2ccccc2)nc1CO 1%, Cn1c(=O)oc2cc(S(=O)(=O)N3CCCC(C(=O)N4CCN(c5cccc(Cl)c5)CC4)C3)ccc21 (stereo not given) -5.28%, CC1=C(C(=O)OCC2CCCCC2)C(c2cccc(F)c2F)CC(=O)N1 (stereo not given) -11.6%, COc1ccc(NC(=O)Cn2nnc(C(=O)Nc3ccc(C)c(F)c3)c2N)cc1Cl -10.4%, CCOc1ccc(NC(=O)CC2C(=O)N(c3ccc(C)cc3)C(=O)N2Cc2ccc(OC)cc2)cc1 (stereo not given) -12.7%, CCC(=O)N1CCc2cc(Br)cc(S(=O)(=O)N(CC)Cc3ccccc3)c21 -12.3%, COc1ccc(OC)c(NC(=O)N(C)CCc2c(C)nn(C)c2C)c1 -10.4%, CCOc1ccc(NC(=O)c2c(NC(=O)c3ccccc3Br)sc3c2CCC(C)C3)cc1 (stereo not given) -18.7%, CCOc1ccc(S(=O)(=O)NCC(c2ccc(N(C)C)cc2)N2CCc3ccccc32)cc1 (stereo not given) 12%, CCCCN(C)S(=O)(=O)c1cc(-c2cc(C)no2)ccc1C -26.8%, COC(=O)CSc1ccc2nnc(CCNS(=O)(=O)c3ccccc3)n2n1 0.71%, Cc1cc(-c2nc3ncccc3o2)ccc1NC(=O)c1ccc(Cl)cc1 1.73%, Cc1ccc(-c2nc3ncccc3o2)cc1NC(=O)c1ccc(-c2cccc(Cl)c2C)o1 -2.46%, CCc1cccc(C)c1NC(=O)c1cn2c3c(ccc(Cl)c3c1=O)OC(C)C2 (stereo not given) -21.3%, Cc1cccc(N2CCN(c3ncnc4onc(C)c34)CC2C)c1 (stereo not given) -18%, Cc1nc(-c2cccc(F)c2)sc1CCNC(=O)C(=O)Nc1ccc2c(c1)OCO2 -2.83%, O=C(Nc1ccc(F)c(Cl)c1)N1CCC(CN2CCc3ccccc3C2)CC1 -10.6%, CC(C)(C(=O)O)c1ccc(C(O)CCCN2CCC(C(O)(c3ccccc3)c3ccccc3)CC2)cc1 (stereo not given) -14.1%, Cc1cccc(-c2nc3ccccc3n3c(-c4ccccc4)c4c(=O)n(C)c(=O)n(C)c4c23)c1 -11.8%, COc1ccccc1-c1cc2nc(C)c(CCC(=O)Nc3cc(C)ccc3C)c(C)n2n1 -7.41%, CCc1cccc(NC(=O)c2ccc(CNS(=O)(=O)c3ccc4c(c3)C(C)(C)C(=O)N4C)cc2)c1 -4.5%, Cc1ccc(-n2ncc3c(NCC(C)C)ncnc32)c(C)c1 -6.49%, CCc1ccc(NC(=O)Cn2cnc3sc(C)c(S(=O)(=O)N4CCN(c5ccccc5OC)CC4)c3c2=O)cc1 -13.2%, Cc1cccc(CCNC(=O)C2CCN(c3nc4ccccc4nc3C(F)(F)F)CC2)c1 -17.6%, CCC(C)NC(=O)CCc1c(C)nc2cc(-c3ccc(OC)cc3OC)nn2c1C (stereo not given) -1.42%, O=C(Nc1ccc(C(=O)N2CCN(c3ccccc3)CC2)cc1)c1nsc2ccccc12 -20.3%, CCOC(=O)c1cnc2ccc(Cl)cc2c1Nc1ccc(N2CCOCC2)cc1 -17.3%, CCCN(CCC)CCNC(=O)C1CCN(c2nc3ccc(CC)cc3s2)CC1 -23.9%, O=C(CSc1nc2c(c(=O)[nH]1)CN(Cc1ccc3c(c1)OCO3)CC2)Nc1ccc(F)c(F)c1 -18.8%, Cc1oc(-c2ccccc2F)nc1CSc1nnc(C)n2c1cc1occc12 -20.8%, COc1ccc(-n2nnc(-c3nc(-c4cccs4)no3)c2N)cc1 -21.5%, Cc1ccc(C)c(NC(=O)Nc2cccc(-c3cn4cccnc4n3)c2)c1 -3.47%, COC(=O)c1ccccc1-n1cc2c(c1-c1cccc(C)c1)c(=O)n(C)c(=O)n2C -23.6%, CCc1ccccc1NC(=O)C(=O)NCCc1sc(-c2cccc(F)c2)nc1C -12.3%, Cc1ccc(S(=O)(=O)N2CCC(n3c(C)nc4cccnc43)CC2)c(C)c1 -15.6%, CCOc1ccc(CCNC(=O)c2cc3sc(CC)cc3n2C)cc1OCC -23.7%, Cc1ccc(S(=O)(=O)c2cn(Cc3ccc(F)cc3)c3cc(N4CCCC4)c(F)cc3c2=O)cc1 -4.67%, Cc1[nH]c2ccccc2c1SCCNC(=O)c1ccccc1F -35.7%, CCOC(=O)C1CCCN(C(=O)c2[nH]c3ccccc3c2Sc2ccc(Cl)cc2)C1 (stereo not given) 10.1%, CC(C)Oc1ccc(CNC(=O)Cn2ncn3nc(-c4cccs4)cc3c2=O)cc1 -14.5%, O=C(NCc1ccccc1Cl)c1cc2cccc3c2n1CCS3 -0.969%, COc1cccc(CNC(=O)c2ccc3c(c2)nc2n3CCC(C)C2)c1OC (stereo not given) -6%, COC(=O)c1ccccc1-n1c(CCC(=O)O)ccc1-c1ccccc1 -14.3%, Cc1ccnc(NS(=O)(=O)c2ccc(NC(=O)c3nc(SC(C)C)ncc3Cl)cc2)n1 -15.4%, COc1ccc(C(=O)NCC(c2ccco2)S(=O)(=O)c2cccs2)cc1OC (stereo not given) -19%, COc1ccc(NC(=O)NC(C)c2c(-n3cccc3)sc3c2CCN(C)C3)c(OC)c1 (stereo not given) -8.04%, O=C(CSc1nnc2[nH]c(=O)cc(-c3ccccc3)n12)Nc1cc(C(F)(F)F)ccc1Cl 1.09%, CCOc1ccc(NC(=O)CN(C)S(=O)(=O)c2cnc[nH]2)cc1 -9.77%, Nc1c(C(=O)Nc2cccc(C(F)(F)F)c2)c2ccccn2c1C(=O)c1ccccc1 -14.2%, Brc1ccc2nc(SCCOc3ccccc3)[nH]c2c1 -14.1%, Cc1ccc2c(c1)N(C(=O)Nc1cccc3c1CCCC3)CC(C)O2 (stereo not given) -21%, COc1cc2c(cc1OC)C(COc1ccc3c(C)cc(=O)oc3c1)N(C(=O)CC(C)C)CC2 (stereo not given) -7.19%, CC(=O)Nc1nonc1-c1nc2ccccc2n1Cc1ccccc1Br -11.6%, Cc1ccc2oc(-c3cc(NC(=O)/C=C/c4ccco4)ccc3Cl)nc2c1 3.95%, CCC1Nc2cc(Cl)c(S(N)(=O)=O)cc2S(=O)(=O)N1 (stereo not given) -6.97%, CN1CCN(C(CNC(=O)c2ccccc2)c2ccc3c(c2)OCO3)CC1 (stereo not given) -13.6%, CCOc1ccc(NC(=O)c2c(NC(=O)c3cccs3)sc3c2CCC(C(C)(C)C)C3)cc1 (stereo not given) -11.9%, COc1ccccc1NC(=O)c1cc(S(=O)(=O)NCCC2=CCCCC2)ccc1F -6.43%, O=C(NCc1cccc(Cl)c1)C1CCCN(c2ncnc3onc(-c4ccc(F)cc4)c23)C1 (stereo not given) -3.02%, CCn1c(=O)cc(SCC(=O)N2CCN(c3ccccc3F)CC2)c2ccccc21 -8.99%, COC(=O)c1cc(NC(=O)c2ccc(-c3ccc(Cl)cc3Cl)o2)cc(C(=O)OC)c1 -8.69%, COc1ccc(NC(=O)CCc2c(C)nc3c(-c4ccc(F)cc4)c(C)nn3c2C)c(OC)c1 -15.7%, Cc1ccccc1CN1CCCN(CC(=O)Nc2ccc3c(c2)OCCO3)S1(=O)=O 1.52%, Cc1cccc(Cn2nnc3c(=O)[nH]c(C4CCN(C(=O)c5ccc(F)cc5)CC4)nc32)c1 -13%, CCOC(=O)c1noc2nc(C)n(Cc3ccc([N+](=O)[O-])cc3)c(=O)c12 -5.36%, CCc1ccc(NC(=O)N2CCN(C(=O)c3nsc4ccccc34)CC2)cc1 -1.51%, O=C(Nc1ccc(C(F)(F)F)cc1)N1CCC(N2CCCCC2)CC1 7.72%, CNC(=O)C1CCN(c2nc3ccccc3nc2C(F)(F)F)CC1 -6.15%, CC(C)CN(CCNC(=O)c1cc(-c2ccc(Cl)s2)nc2ccccc12)CC(C)C -5.12%, CCCN(C(=O)Cn1cc(S(=O)(=O)N2CCN(c3ccccc3F)CC2)c2ccccc2c1=O)c1cccc(C)c1 -15.2%, CCOc1ccc(OCC)c(Nc2nc3ccc(Cl)cc3n3cnnc23)c1 1.1%, COc1cccc(CNC(=O)Cn2c(C)c3cnn(-c4ccccc4)c(=O)c3c2C)c1 -11.4%, Cc1ccsc1CN1CCc2nc(N3CCN(c4ccccc4F)CC3)ncc2C1 -17.2%, COc1cc(Cl)c(C)cc1NC(=O)c1cnc2c(-c3cccc(C)c3)c(C)nn2c1C -10.9%, CNC(=O)c1ccc(CSc2nc3ccncc3n2Cc2ccc(C)cc2)cc1 -15.6%, COCc1cc(C)nc2sc(C(=O)Nc3cc(C)ccc3F)c(N)c12 -7.6%, Cc1cc(C)cc(N2CCn3c2nc2c3c(=O)n(CCCc3ccccc3)c(=O)n2C)c1 -7.27%, CC(C)(C)C(=O)Cn1c(=O)n(-c2ccc(Cl)c(Cl)c2)c(=O)c2c3c(sc21)CCCC3 2.54%, Cc1ccc(-c2nc3cc(C(C)C)ccc3o2)cc1NC(=O)c1cc([N+](=O)[O-])ccc1N1CCOCC1 -9.31%, CCOc1ccc(-c2noc(CSc3nnc(Cc4ccccc4)n3-c3cccc(C)c3)n2)cc1 -14.2%, COCCCNC(=O)C1CCCN(c2nn3cc(-c4ccc(C)cc4)nc3s2)C1 (stereo not given) -6.02%, CN(C(=O)CSc1nnc(-c2ccc([N+](=O)[O-])cc2)o1)c1ccccc1 -0.576%, Cc1ccc(CNC(=O)CCCn2c(=O)c3ccccc3n(Cc3ccc(Cl)cc3)c2=O)cc1 0.846%, COc1ccc(CCNC(=O)Cn2cc(C(=O)c3ccc(F)cc3)c(=O)c3ccc(C)nc32)cc1OC 13.2%, Cc1ccc(CNC(=O)CCC(=O)N2CCSc3ccccc32)cc1 3.72%, CCCn1ccc2c(OCC(=O)NCc3ccccc3Cl)cccc2c1=O -14.7%, O=C(CSc1nccn1Cc1ccccc1)NCc1ccccc1Cl -10.8%, CCc1ccccc1NC(=O)NCc1ccc2c(c1)CCN2C(=O)c1ccccc1 -17.1%, COC(=O)c1c(-c2ccc(Cl)cc2)noc1N1CCN(c2cccc(C(F)(F)F)c2)CC1 -11.1%, O=C(Nc1ccccc1C(=O)OCc1cc(=O)n2c3c(sc2n1)CCCC3)c1cccc(Cl)c1 -5.87%
